Publication PMC9911399, “Two distinct binding modes provide the RNA-binding protein RbFox with extraordinary sequence specificity”
Changes are numbered by the printed parent chain; changes in the protein carry UniProt numbers. This is one part of the list.

B1: AGCUUGA (DNA:RNA)
RNA: GGGAGACCGGAAUUCAGAUUGUCCAGCUUGAUUAAAUCCCGUCGUAGCCACCA
DNA 1: CAATCTGAATTCCGGTCTCCC
DNA 2: TGGTGGCTACGACGGGATT
B2: UAAUCCU (DNA:RNA)
RNA: B1 RNA with A25U, G26A, C27A, U29C, G30C, A31U
DNA 1: CAATCTGAATTCCGGTCTCCC
DNA 2: TGGTGGCTACGACGGGATT
B3: CCACCAG (DNA:RNA)
RNA: GGGAGACCGGAAUUCAGAUUGUCCCCACCAGUUAAAUCCCGUCGUAGCCACCA
DNA 1: CAATCTGAATTCCGGTCTCCC
DNA 2: TGGTGGCTACGACGGGATT
B4: GUGAUUU (DNA:RNA)
RNA: B1 RNA with A25G, G26U, C27G, U28A, G30U, A31U
DNA 1: CAATCTGAATTCCGGTCTCCC
DNA 2: TGGTGGCTACGACGGGATT
B5: UGUUCCC (DNA:RNA)
RNA: B1 RNA with A25U, C27U, U29C, G30C, A31C
DNA 1: CAATCTGAATTCCGGTCTCCC
DNA 2: TGGTGGCTACGACGGGATT
B6: UUGGUCG (DNA:RNA)
RNA: B1 RNA with A25U, G26U, C27G, U28G, G30C, A31G
DNA 1: CAATCTGAATTCCGGTCTCCC
DNA 2: TGGTGGCTACGACGGGATT
B7: AAGCCUG (DNA:RNA)
RNA: B3 RNA with C25A, C26A, A27G, A30U
DNA 1: CAATCTGAATTCCGGTCTCCC
DNA 2: TGGTGGCTACGACGGGATT
B8: CUCGCAG (DNA:RNA)
RNA: B3 RNA with C26U, A27C, C28G
DNA 1: CAATCTGAATTCCGGTCTCCC
DNA 2: TGGTGGCTACGACGGGATT
B9: GACCCCU (DNA:RNA)
RNA: B3 RNA with C25G, C26A, A27C, A30C, G31U
DNA 1: CAATCTGAATTCCGGTCTCCC
DNA 2: TGGTGGCTACGACGGGATT
B10: CCAUUAU (DNA:RNA)
RNA: B3 RNA with C28U, C29U, G31U
DNA 1: CAATCTGAATTCCGGTCTCCC
DNA 2: TGGTGGCTACGACGGGATT
B11: UUUGUCU (DNA:RNA)
RNA: B1 RNA with A25U, G26U, C27U, U28G, G30C, A31U
DNA 1: CAATCTGAATTCCGGTCTCCC
DNA 2: TGGTGGCTACGACGGGATT
B12: AAUUGUA (DNA:RNA)
RNA: B1 RNA with G26A, C27U, U29G, G30U
DNA 1: CAATCTGAATTCCGGTCTCCC
DNA 2: TGGTGGCTACGACGGGATT
B13: CGAGCAU (DNA:RNA)
RNA: B3 RNA with C26G, C28G, G31U
DNA 1: CAATCTGAATTCCGGTCTCCC
DNA 2: TGGTGGCTACGACGGGATT
B14: AGGCUGC (DNA:RNA)
RNA: B1 RNA with C27G, U28C, A31C
DNA 1: CAATCTGAATTCCGGTCTCCC
DNA 2: TGGTGGCTACGACGGGATT
B15: CAUUGUA (DNA:RNA)
RNA: B1 RNA with A25C, G26A, C27U, U29G, G30U
DNA 1: CAATCTGAATTCCGGTCTCCC
DNA 2: TGGTGGCTACGACGGGATT
B16: GCCCGCG (DNA:RNA)
RNA: B3 RNA with C25G, A27C, C29G, A30C
DNA 1: CAATCTGAATTCCGGTCTCCC
DNA 2: TGGTGGCTACGACGGGATT
B17: UCACGUC (DNA:RNA)
RNA: B3 RNA with C25U, C29G, A30U, G31C
DNA 1: CAATCTGAATTCCGGTCTCCC
DNA 2: TGGTGGCTACGACGGGATT
B18: GCAUUAA (DNA:RNA)
RNA: B1 RNA with A25G, G26C, C27A, G30A
DNA 1: CAATCTGAATTCCGGTCTCCC
DNA 2: TGGTGGCTACGACGGGATT
B19: ACGAGUU (DNA:RNA)
RNA: B1 RNA with G26C, C27G, U28A, U29G, G30U, A31U
DNA 1: CAATCTGAATTCCGGTCTCCC
DNA 2: TGGTGGCTACGACGGGATT
B20: ACGAUAC (DNA:RNA)
RNA: B1 RNA with G26C, C27G, U28A, G30A, A31C
DNA 1: CAATCTGAATTCCGGTCTCCC
DNA 2: TGGTGGCTACGACGGGATT
B21: CGUGUUU (DNA:RNA)
RNA: B1 RNA with A25C, C27U, U28G, G30U, A31U
DNA 1: CAATCTGAATTCCGGTCTCCC
DNA 2: TGGTGGCTACGACGGGATT
B22: CCCGCAC (DNA:RNA)
RNA: B3 RNA with A27C, C28G, G31C
DNA 1: CAATCTGAATTCCGGTCTCCC
DNA 2: TGGTGGCTACGACGGGATT
B23: AAUAGAC (DNA:RNA)
RNA: B1 RNA with G26A, C27U, U28A, U29G, G30A, A31C
DNA 1: CAATCTGAATTCCGGTCTCCC
DNA 2: TGGTGGCTACGACGGGATT
B24: CGAGCCA (DNA:RNA)
RNA: B3 RNA with C26G, C28G, A30C, G31A
DNA 1: CAATCTGAATTCCGGTCTCCC
DNA 2: TGGTGGCTACGACGGGATT
B25: UGCUCCU (DNA:RNA)
RNA: B1 RNA with A25U, U29C, G30C, A31U
DNA 1: CAATCTGAATTCCGGTCTCCC
DNA 2: TGGTGGCTACGACGGGATT
B26: UAACCUA (DNA:RNA)
RNA: B3 RNA with C25U, C26A, A30U, G31A
DNA 1: CAATCTGAATTCCGGTCTCCC
DNA 2: TGGTGGCTACGACGGGATT
B27: GCGAAAC (DNA:RNA)
RNA: B3 RNA with C25G, A27G, C28A, C29A, G31C
DNA 1: CAATCTGAATTCCGGTCTCCC
DNA 2: TGGTGGCTACGACGGGATT
B28: UUUCACA (DNA:RNA)
RNA: B1 RNA with A25U, G26U, C27U, U28C, U29A, G30C
DNA 1: CAATCTGAATTCCGGTCTCCC
DNA 2: TGGTGGCTACGACGGGATT
B29: AGCGAGU (DNA:RNA)
RNA: B1 RNA with U28G, U29A, A31U
DNA 1: CAATCTGAATTCCGGTCTCCC
DNA 2: TGGTGGCTACGACGGGATT
B30: UAUGGUA (DNA:RNA)
RNA: B1 RNA with A25U, G26A, C27U, U28G, U29G, G30U
DNA 1: CAATCTGAATTCCGGTCTCCC
DNA 2: TGGTGGCTACGACGGGATT
B31: UUUGGAG (DNA:RNA)
RNA: B3 RNA with C25U, C26U, A27U, C28G, C29G
DNA 1: CAATCTGAATTCCGGTCTCCC
DNA 2: TGGTGGCTACGACGGGATT

molecular target: T1, RBFOX1 RRM RbFoxmut (Fox-RRM*) (Homo sapiens, UniProt Q9NWB1 109-208, R118D;E147R;N151S;E152T); experiment: EMSA; HiTS-Eq, 1 nM pool, 10 min; buffer printed only for the single-RNA assays: 10 mM Tris pH 7.5, 150 mM NaCl, 3.4 mM EDTA, 0.001% NP-40, 30 C; conditions: tags: His6 N-terminal (pET28a); label: 5' 32P
T1 sequence: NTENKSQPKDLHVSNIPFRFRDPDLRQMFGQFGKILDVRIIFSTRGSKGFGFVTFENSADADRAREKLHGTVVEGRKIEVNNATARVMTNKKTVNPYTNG
Procedure, shortened: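 These values rest on relative association constants, computed from read-count changes of each RNA species versus the control reaction and normalised to the cognate motif. Reads came from free RNA recovered by 8% native PAGE after purified RbFox RRM (wild type or mutant) at increasing concentrations was equilibrated for 10 min in 50 µL with 1 nM of a 5′-radiolabelled pool with 7 randomized nucleotides and DNA-annealed flanks.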

Binder | binding signal
B1 | 0.164 KA relative to UGCAUGU
B2 | 0.0621 KA relative to UGCAUGU
B3 | 0.14 KA relative to UGCAUGU
B4 | 0.106 KA relative to UGCAUGU
B5 | 0.0599 KA relative to UGCAUGU
B6 | 0.268 KA relative to UGCAUGU
B7 | 0.0848 KA relative to UGCAUGU
B8 | 0.109 KA relative to UGCAUGU
B9 | 0.0538 KA relative to UGCAUGU
B10 | 0.131 KA relative to UGCAUGU
B11 | 0.0828 KA relative to UGCAUGU
B12 | 0.188 KA relative to UGCAUGU
B13 | 0.105 KA relative to UGCAUGU
B14 | 0.105 KA relative to UGCAUGU
B15 | 0.265 KA relative to UGCAUGU
B16 | 0.103 KA relative to UGCAUGU

Binder | binding signal
B17 | 0.0971 KA relative to UGCAUGU
B18 | 0.141 KA relative to UGCAUGU
B19 | 0.129 KA relative to UGCAUGU
B20 | 0.118 KA relative to UGCAUGU
B21 | 0.0886 KA relative to UGCAUGU
B22 | 0.0907 KA relative to UGCAUGU
B23 | 0.0757 KA relative to UGCAUGU
B24 | 0.0942 KA relative to UGCAUGU
B25 | 0.0578 KA relative to UGCAUGU
B26 | 0.0804 KA relative to UGCAUGU
B27 | 0.0542 KA relative to UGCAUGU
B28 | 0.0896 KA relative to UGCAUGU
B29 | 0.139 KA relative to UGCAUGU
B30 | 0.152 KA relative to UGCAUGU
B31 | 0.139 KA relative to UGCAUGU
